Experimental data reported in ChEMBL document CHEMBL4888484, “Replenishing the malaria drug discovery pipeline: Screening and hit evaluation of the MMV Hit Generation Library 1 (HGL1) against asexual blood stage Plasmodium falciparum ,using a nano luciferase reporter read-out” (2022).
About 540 (0.36%) of roughly 150,000 compounds showed an effect of 50% or more. Some of the results follow.

These compounds were tested on Plasmodium falciparum (assay: Primary screen in NF54 nanoGlo assay, in single point, at 2uM, 72h; a lower Z score goes with more inhibition). Settings: timepoint 72 hour.
Type: functional, Erythrocyte
With COc1c(C)cc(CNCC(C)(C)CN(C)C)cc1C the “% Inhibition” value was -2% and the Z score was 0.28.
In the case of O=C1C2ON(c3ccccc3)C(c3cccc4ccccc34)C2C(=O)N1c1c(Cl)cccc1Cl (configuration not stated), the “% Inhibition” value is reported as -8% and the Z score is reported as 0.83.
With CCn1c(C)cc(C(=O)OCc2ccccc2C#N)c1C the “% Inhibition” value was -11% and the Z score was 2.1.
In the case of CCn1ccc(C(=O)N2CC[C@H](CCOc3ccccc3)C2)n1, the “% Inhibition” value is reported as -9% and the Z score is reported as 1.43.
In the case of COc1ccc(OC)c(S(=O)(=O)N2CCC3(CC2)N=C(c2cccc(C)c2)C(=O)N3)c1, the “% Inhibition” value is reported as -9% and the Z score is reported as 1.13.
In the case of O=C(NCc1ccccc1)C1=NN(c2ccc(Cl)cc2)c2ncccc2S1(=O)=O, the “% Inhibition” value is reported as 11% and the Z score is reported as -1.57.
Cn1c(N2CCCN(C(=O)c3ccc(Cl)cc3)CC2)cc(=O)n(C)c1=O was tested, and the “% Inhibition” value was -3% and the Z score was 0.4.
O=C(NCc1cnn(CCF)c1)c1coc2c1C(=O)NCCC2 was tested, and the “% Inhibition” value was -3% and the Z score was 0.65.
For C[C@@H](C(=O)N1CCCCCC1)S(=O)(=O)Cc1nnnn1-c1ccccc1, the “% Inhibition” value was -11% and the Z score was 1.32.
In the case of Cc1cc(NC(=O)CCc2ccsc2)sn1, the “% Inhibition” value is reported as -10% and the Z score is reported as 2.21.
With FC(F)(F)c1ccc(NCc2scnc2C2CC2)nn1 the “% Inhibition” value was -1% and the Z score was 0.15.
In the case of Cc1cc(C(=O)N[C@H](CO)[C@@H](C)O)n2nc(C)cc2n1, the “% Inhibition” value is reported as -3% and the Z score is reported as 0.34.
C=CCC1(C(=O)NCCc2cccnc2)CCCC1 was tested, and the “% Inhibition” value was -11% and the Z score was 1.95.
In the case of Cc1oc(-c2ccsc2)nc1CN1C(=O)N[C@@H](C(C)C)C1=O, the “% Inhibition” value is reported as 2% and the Z score is reported as -0.33.
With COc1ncc(CN2C(=O)N[C@@](C)(c3cc(C)oc3C)C2=O)c(C)n1 the “% Inhibition” value was -11% and the Z score was 1.47.
In the case of Cc1cc2nc(N3CCN(C(=O)Cc4cccc5ccccc45)CC3)sc2cc1C, the “% Inhibition” value is reported as 6% and the Z score is reported as -0.71.
O=C(Nc1nc(-c2cccc(Br)c2)c[nH]1)c1ccc(-n2cnnn2)cc1 was tested, and the “% Inhibition” value was 9% and the Z score was -1.18.
In the case of Cc1ccc(F)c2oc(C(=O)N3CC[C@H](N4CCCC4=O)C3)cc12, the “% Inhibition” value is reported as -7% and the Z score is reported as 0.73.
With CS(=O)(=O)N1CCC(COc2cc3c(nn2)CCC3)CC1 the “% Inhibition” value was -7% and the Z score was 0.94.
For COCCn1cncc1CNS(=O)(=O)C(C)C, the “% Inhibition” value was -3% and the Z score was 0.57.
With O=C(N[C@@H](CC(F)(F)F)c1ccccc1)c1ccc2c(=O)n3c(nc2c1)CCCCCC3 the “% Inhibition” value was -10% and the Z score was 1.88.
CN(C(=O)c1cn2cc(Cl)ccc2n1)[C@H]1CCCN(CCCc2ccccc2)C1 was tested, and the “% Inhibition” value was -8% and the Z score was 1.23.
For C#CCCC1(CCC(=O)N2CCCc3ccccc3C2)N=N1, the “% Inhibition” value was -18% and the Z score was 2.2.
For O=C(c1ccco1)N1CCN(C(=O)[C@@H]2COCC(=O)N2Cc2ccccc2)CC1, the “% Inhibition” value was -4% and the Z score was 0.74.
With COCCN(C(=O)C[C@]1(c2ccccc2)CC(=O)N(CCCOc2cccnc2)C1=O)C(C)C the “% Inhibition” value was 20% and the Z score was -2.6.
In the case of COc1ccccc1N1C(=O)N(c2ccccc2Cl)C2CS(=O)(=O)CC21 (configuration not stated), the “% Inhibition” value is reported as -7% and the Z score is reported as 1.11.
With Cc1cc(-c2nnc(Cc3cccc(Cl)c3)o2)n(C)n1 the “% Inhibition” value was 38% and the Z score was -5.56.
With CCc1ccc(CN2CCC(Oc3cc(OC)ccc3C(=O)NCCOC)CC2)o1 the “% Inhibition” value was 17% and the Z score was -2.38.
In the case of Cc1ccc(-c2cccnc2)cc1NC(=O)NC(CC1CCCO1)C(F)(F)F (configuration not stated), the “% Inhibition” value is reported as 11% and the Z score is reported as -1.43.
For CCOCCOc1nc(-c2ccccc2F)n(-c2ccc(NS(=O)(=O)c3ccc(C)cc3)cc2)n1, the “% Inhibition” value was -7% and the Z score was 0.91.
With CN(C)c1noc([C@H]2CCn3ccnc3C2)n1 the “% Inhibition” value was -18% and the Z score was 2.28.
With O=C(c1ccccn1)N1Cc2ccccc2C1 the “% Inhibition” value was -14% and the Z score was 1.77.
In the case of O[C@H]1[C@@H]2CC[C@H]1CN(Cc1ccc(-c3cccc(Cl)c3)o1)C2, the “% Inhibition” value is reported as -7% and the Z score is reported as 1.
With Cc1ccc(C(C)(C)NCCC(=O)Nc2ccc(F)cc2)cn1 the “% Inhibition” value was 11% and the Z score was -1.36.
CCCC(C)CS(=O)(=O)N1CCCC1C(N)=O (configuration not stated) was tested, and the “% Inhibition” value was -7% and the Z score was 1.34.
With O=S1(=O)CCN(c2nc(-c3cc(F)ccc3F)cs2)CC1 the “% Inhibition” value was -6% and the Z score was 1.08.
For COCCN(Cc1ccc(OC)c(OS(=O)(=O)c2ccc(F)cc2)c1)C(=O)c1cccc(F)c1, the “% Inhibition” value was -1% and the Z score was 0.15.
In the case of CC(C)c1cc(=O)n(CC(=O)N2CCCCC2)cn1, the “% Inhibition” value is reported as -6% and the Z score is reported as 1.05.
For O=C(NCc1nnc2n1CCOC2)c1ccc(OC(F)F)nc1, the “% Inhibition” value was -8% and the Z score was 1.3.
In the case of O=C(NCC[C@H]1CCOC1)c1ccc(-c2cnn3cccnc23)cc1, the “% Inhibition” value is reported as -1% and the Z score is reported as 0.21.
With CCOc1ccccc1NC(=O)C(=O)c1cccn1C the “% Inhibition” value was -18% and the Z score was 1.65.
With CC(C)(C)c1n[nH]cc1CNc1ccc(C[C@H]2CC(=O)NC2=O)cc1 the “% Inhibition” value was 3% and the Z score was -0.36.
With COc1ccccc1-c1n[nH]c2c1CN(C(=O)Cc1ccsc1)CC2 the “% Inhibition” value was -2% and the Z score was 0.22.
With COCCN(CC(=O)Nc1cnn(C)c1C)Cc1ccc(C)s1 the “% Inhibition” value was 0% and the Z score was -0.02.
For C[C@H]1CCCN(C(=O)CNC(=O)c2cccs2)C1, the “% Inhibition” value was -6% and the Z score was 1.25.
For O=C(CCCc1c[nH]c2ccccc12)N1CCOCC1, the “% Inhibition” value was -11% and the Z score was 1.51.
In the case of C[C@]1(C#N)CCCN(C(=O)CCCn2cccn2)C1, the “% Inhibition” value is reported as -5% and the Z score is reported as 1.04.
Cc1ccccc1CNC(=O)c1cc(N(C)C2CCCCC2)nc2ccccc12 was tested, and the “% Inhibition” value was -26% and the Z score was 2.26.
For CN1CCN(C(=O)CN2CCCC2)C[C@H]1c1ccccc1, the “% Inhibition” value was -21% and the Z score was 2.73.
In the case of Cc1nc2ccccc2n1[C@H]1CCN(S(=O)(=O)c2ccc3c(c2)CCCC3)C1, the “% Inhibition” value is reported as -17% and the Z score is reported as 2.11.
For COc1cnc2ccccc2c1C(=O)N1CCC(N2CCCOCC2)CC1, the “% Inhibition” value was -39% and the Z score was 4.55.
CC(C)c1nc(CC(=O)N2CCc3sccc3C2)cs1 was tested, and the “% Inhibition” value was 0% and the Z score was 0.04.
CCCCS(=O)(=O)N[C@@H](COC)c1ccccn1 was tested, and the “% Inhibition” value was 9% and the Z score was -1.15.
Cc1cc(F)ccc1[C@H](C)NC(=O)Nc1ncn(CC(=O)N(C)C)n1 was tested, and the “% Inhibition” value was -5% and the Z score was 0.55.
For COc1c(C)ncnc1N1CCC[C@H](n2cc(C)cn2)C1, the “% Inhibition” value was 2% and the Z score was -0.3.
In the case of Cn1cc(NC(=O)c2ccccn2)cn1, the “% Inhibition” value is reported as 4% and the Z score is reported as -0.68.
CN(Cc1nnc(-c2ccco2)o1)C[C@H]1COc2ccccc2O1 was tested, and the “% Inhibition” value was -13% and the Z score was 2.46.
CCCN1C(=O)CN(S(=O)(=O)c2ccccc2)C[C@@]1(C)C(=O)NCc1ccc(C)cc1 was tested, and the “% Inhibition” value was 1% and the Z score was -0.15.
With COc1ccc(F)cc1C(=O)N1C[C@@H](CN2C[C@@H](C)O[C@@H](C)C2)[C@@H](CO)C1 the “% Inhibition” value was -17% and the Z score was 2.58.
With O=C(NCc1cccc(F)c1)c1cc2n(n1)CCCN(Cc1ccc(Cl)cc1)C2=O the “% Inhibition” value was 1% and the Z score was -0.14.
In the case of O=C1NC2(CCN(C(=O)NC3CCCCC3)CC2)Nc2cc(Cl)ccc21, the “% Inhibition” value is reported as -6% and the Z score is reported as 0.75.
C[C@@H](CC#N)NS(=O)(=O)c1cnc(NCCCO)c(Cl)c1 was tested, and the “% Inhibition” value was -4% and the Z score was 0.63.
CCc1nc(N2CCC(CNC(=O)c3cc(C)on3)CC2)no1 was tested, and the “% Inhibition” value was -7% and the Z score was 0.87.
For O=c1cccc(-c2noc(C3CCC3)n2)[nH]1, the “% Inhibition” value was -6% and the Z score was 0.83.
CS(=O)(=O)N1CCC2(CC1)OC(=O)c1ccccc12 was tested, and the “% Inhibition” value was -13% and the Z score was 1.72.
With C[C@@H](Cc1cccnc1)NC(=O)Nc1ccc(C2CCC2)cn1 the “% Inhibition” value was -1% and the Z score was 0.16.
For CCc1nsc(N2CCC(n3c(C)nnc3N)CC2)n1, the “% Inhibition” value was 26% and the Z score was -3.3.
In the case of CN(Cc1ccccn1)C(=O)[C@@H]1CCCCN1C(=O)c1cccnc1, the “% Inhibition” value is reported as -16% and the Z score is reported as 1.74.
C[C@H](N(C)C(=O)c1ccccc1F)C(C)(C)C was tested, and the “% Inhibition” value was -10% and the Z score was 1.82.
For Cc1ccn(-c2cc(N3CCN(C(=O)CNC(=O)c4ccccc4)CC3)ncn2)n1, the “% Inhibition” value was -3% and the Z score was 0.45.
With Brc1cnc(NCCc2ccc[nH]2)nc1 the “% Inhibition” value was -2% and the Z score was 0.21.
In the case of CCOC1CC(N(C)Cc2cccnc2)C1(C)C (configuration not stated), the “% Inhibition” value is reported as 5% and the Z score is reported as -0.83.
With CS(=O)(=O)N1CCN(C(=O)COc2ccc(Cl)cc2Cc2ccccc2)CC1 the “% Inhibition” value was -1% and the Z score was 0.22.
COc1ccccc1N1CCN(CCC(=O)Nc2ccc3c(c2)CCC3)CC1 was tested, and the “% Inhibition” value was -4% and the Z score was 0.53.
In the case of CCCn1ncc(C(=O)N2CC(C)(C)[C@@](O)(C3CC3)C2)c1C, the “% Inhibition” value is reported as -2% and the Z score is reported as 0.48.
Cc1ccccc1-c1cc(C(=O)N(C)C2CC2)c2cnn(C(C)C)c2n1 was tested, and the “% Inhibition” value was -6% and the Z score was 0.69.
In the case of N#CC1(NC(=O)C2CC2c2cc(F)ccc2F)CCC1 (configuration not stated), the “% Inhibition” value is reported as 0% and the Z score is reported as -0.05.
c1sc(C2CCOCC2)nc1C1CCC1 was tested, and the “% Inhibition” value was 18% and the Z score was -2.35.
With Cc1ncccc1NC(=O)C(=O)NCC1CCC(C)(C)CC1 the “% Inhibition” value was -9% and the Z score was 1.51.
For Cc1nnc([C@@H]2COCCN2Cc2oc(C(C)C)nc2C)o1, the “% Inhibition” value was -9% and the Z score was 1.22.
In the case of O=C1N(CC2CC2)CCC[C@@]12CCN(S(=O)(=O)N1CCOCC1)C2, the “% Inhibition” value is reported as -12% and the Z score is reported as 1.1.
With O=C1CCNC(=O)N1Cc1nc2ccccc2s1 the “% Inhibition” value was -7% and the Z score was 0.96.
O=C(CN1CCN(S(=O)(=O)c2ccc(F)cc2)CC1)Nc1ccon1 was tested, and the “% Inhibition” value was -11% and the Z score was 1.35.
In the case of Cc1nc(C(=O)NC2CC(OC(C)(C)C)C2n2cccn2)c(C)o1 (configuration not stated), the “% Inhibition” value is reported as -7% and the Z score is reported as 1.46.
CCc1csc(CNC(=O)c2ccc(N[C@@H]3C[C@@H](CO)N(C)C3)nc2)n1 was tested, and the “% Inhibition” value was -3% and the Z score was 0.5.
In the case of COc1ccc(CNS(C)(=O)=O)cc1N[C@@H](C)C1CC(F)(F)C1, the “% Inhibition” value is reported as 2% and the Z score is reported as -0.34.
